Results on 88 compounds are retold here after publication PMC4336329 (PLoS ONE, 2015).

The campaign covered roughly 310,000 compounds. About 2,200 (0.71%) showed an effect of 50% or more. Effects have a minus sign here. Some of the results follow.

For this experiment, the target named is human ether-à-go-go-related gene (hERG) potassium channel (human, UniProt Q12809). Description: primary screen, population patch clamp on CHO cells stably expressing hERG.
human ether-à-go-go-related gene (hERG) potassium channel, sequence (Q12809 whole entry, looked up): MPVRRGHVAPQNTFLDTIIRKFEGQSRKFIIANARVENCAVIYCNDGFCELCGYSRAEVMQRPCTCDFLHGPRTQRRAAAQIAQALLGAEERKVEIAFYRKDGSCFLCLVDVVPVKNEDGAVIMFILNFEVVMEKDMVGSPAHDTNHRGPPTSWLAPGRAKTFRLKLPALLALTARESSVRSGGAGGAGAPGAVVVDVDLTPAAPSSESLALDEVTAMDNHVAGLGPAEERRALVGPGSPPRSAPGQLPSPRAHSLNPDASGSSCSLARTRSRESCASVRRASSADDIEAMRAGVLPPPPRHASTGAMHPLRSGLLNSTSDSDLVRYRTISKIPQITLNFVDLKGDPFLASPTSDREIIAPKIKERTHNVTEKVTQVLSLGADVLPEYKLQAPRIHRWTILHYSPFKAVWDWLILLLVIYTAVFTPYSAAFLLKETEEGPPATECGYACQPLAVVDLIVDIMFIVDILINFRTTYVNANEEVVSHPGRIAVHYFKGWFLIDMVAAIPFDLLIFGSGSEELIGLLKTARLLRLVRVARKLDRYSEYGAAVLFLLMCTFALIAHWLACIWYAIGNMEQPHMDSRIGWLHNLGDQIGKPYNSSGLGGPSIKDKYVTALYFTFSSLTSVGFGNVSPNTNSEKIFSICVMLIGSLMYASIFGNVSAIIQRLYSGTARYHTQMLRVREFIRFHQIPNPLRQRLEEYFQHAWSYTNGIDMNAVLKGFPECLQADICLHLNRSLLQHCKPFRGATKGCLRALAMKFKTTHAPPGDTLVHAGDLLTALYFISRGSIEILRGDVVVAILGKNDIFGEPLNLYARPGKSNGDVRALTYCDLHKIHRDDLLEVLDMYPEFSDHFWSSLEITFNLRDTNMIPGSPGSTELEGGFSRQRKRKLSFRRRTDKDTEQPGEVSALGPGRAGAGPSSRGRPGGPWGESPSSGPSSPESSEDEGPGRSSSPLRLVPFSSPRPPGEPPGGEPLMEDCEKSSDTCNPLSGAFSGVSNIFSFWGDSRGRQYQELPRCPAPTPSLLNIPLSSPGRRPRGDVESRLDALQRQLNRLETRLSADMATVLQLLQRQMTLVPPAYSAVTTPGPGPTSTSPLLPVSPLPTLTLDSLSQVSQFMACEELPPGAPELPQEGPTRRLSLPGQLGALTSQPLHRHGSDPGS
With `CCOc1cc(C2C(C(=O)OCC(C)C)=C(C)N=C3SCCC(=O)N32)ccc1OC(C)=O` (stereo not shown), the “hERG current change (%, negative = inhibition) at 1uM” value is recorded as -0.245%. Regarding `CCCCNc1nc(-c2ccccc2)cc(C(F)(F)F)c1C(N)=O`, the “hERG current change (%, negative = inhibition) at 1uM” value was determined as 11.3%. In the case of `CCOC(=O)N1CCC(NC(=O)Cn2ncc3c2-c2cc(C)ccc2OC3)CC1`, the “hERG current change (%, negative = inhibition) at 1uM” value is on record as 10.9%. For `COc1ccc(-c2nnc(NC(=O)CSc3ccccc3)s2)cc1OC`, the “hERG current change (%, negative = inhibition) at 1uM” value stood at 16.9%. Next, `CC1CCN(Cc2nnnn2-c2ccc(Cl)cc2)CC1`: 8.07%; `Cc1ccc(C2N(c3cccc(Cl)c3)C(=O)N3CCCN23)cc1` (stereo not shown): 15.7%. Next, `COc1cccc(N(C(=O)c2ccco2)c2nc(-c3sc(NC(=O)c4ccco4)nc3C)cs2)c1`: 13.8%; `Cc1ccsc1/C=N\NC(=O)Cn1nnc2ccccc21`: 7.58%; `CCOC(=O)C1CCCCN1C(=O)CCc1nnc(-c2ccc3c(c2)OCO3)o1` (stereo not shown): 12.3%. Turning to `O=c1cc(CSc2ccccn2)[nH]c(=O)[nH]1`, the “hERG current change (%, negative = inhibition) at 1uM” value is 2.75%. Next, `O=C(CN1C(=O)S/C(=C\c2ccc(-c3cc(C(=O)O)ccc3Cl)o2)C1=O)Nc1ccc2c(c1)OCO2`: 14.4%; `Cc1ccc2c(Cl)c(C)c(N3CCCC3)nc2n1`: 0.942%; `CCN1CCN(c2cc3c(cc2F)c(=O)c(S(=O)(=O)c2ccccc2)cn3C)CC1`: 5.79%. The result for `CCCOP(=O)(c1ccc(N(C)C)cc1)C(O)c1c(Cl)cccc1Cl` (stereo not shown) reads 14%; that for `COc1ccccc1CCC(=O)Nc1nc2ccccc2[nH]1`, 18.7%; that for `O=c1c2ccccc2nc(/C=C/c2ccc(F)cc2)n1-c1ccccc1O`, 2.24%. The result for `COc1ccc(Br)cc1CN(C)CC(=O)Nc1c(Cl)cccc1Cl` reads 4.1%; that for `Cn1cc(CN2CCC(n3nccc3NC(=O)C3CCCC3)CC2)cn1`, 0.668%. For `CCOC(=O)c1cnn(-c2ccccc2)c1NC(=O)c1cccs1`, the “hERG current change (%, negative = inhibition) at 1uM” value was found to be 2.37%. Next, `COc1ccc(-n2c(SCC(=O)Nc3cccc(C(=O)O)c3)nnc2-c2ccco2)cc1`: 12.4%; `O=C(NCC1CCCO1)c1ccc(N2CCCCC2)c([N+](=O)[O-])c1` (stereo not shown): 7.52%. Next, `Cc1cc(N)c(NC2=CC(=O)CC(C)(C)C2)cc1C`: 4.99%.

In the case of `CCOC(=O)C(=O)N1CCN(CC)CC1`, the “hERG current change (%, negative = inhibition) at 1uM” value came to 12.1%. As to `COc1cc(NC(=O)C(F)(F)F)cc(OC)c1`, the “hERG current change (%, negative = inhibition) at 1uM” value stood at 2.19%. The result for `Cc1cc(N2CCC(C(=O)N3CCN(c4cccc(C)c4C)CC3)CC2)n2ncnc2n1` reads -7.35%; that for `O=C(Cn1c(=O)oc2cc(S(=O)(=O)N3CCCCCC3)ccc21)NC1CCCCCCC1`, 4.3%. Consider `Cc1ccc(Cn2c(=O)sc3ccccc3c2=O)cc1`, for which the “hERG current change (%, negative = inhibition) at 1uM” value turned out to be 15.1%. Next, `NNC(=O)c1c(O)c2cccc3c2n(c1=O)CCC3`: 20.2%; `CCc1c(C)sc(NC(=O)Cn2nc(C)c([N+](=O)[O-])c2C)c1C(N)=O`: 11.7%; `CC1CCCCN1C(=O)CN1C(=O)c2ccccc2S1(=O)=O` (stereo not shown): 3.49%. Regarding `c1ccc2c(-c3cn4ccccc4n3)c[nH]c2c1`, the “hERG current change (%, negative = inhibition) at 1uM” value worked out at 13%. The result for `Cc1cc(O)c(NC(=O)c2ccc(C)c([N+](=O)[O-])c2)cc1C` reads 13.7%. `Cc1ccc(N(CC(=O)Nc2ccc(F)cc2)S(=O)(=O)N2CCCC2)cc1`: the “hERG current change (%, negative = inhibition) at 1uM” value was 4.05%. Next, `COc1ccc(-c2cc(C(F)(F)F)nc(SCC(=O)NCc3cnn(C)c3C)n2)cc1OC`: 7.19%; `O=C(CCn1c(=O)oc2ccccc21)Nc1cccc([N+](=O)[O-])c1`: 13.7%; `Cc1ccn2cc(-c3cnoc3C)nc2c1`: 10.6%.

On to `O=C(Nc1cccc(O)c1)c1cccc(C(=O)Nc2cccc(O)c2)c1`, for which the “hERG current change (%, negative = inhibition) at 1uM” value is 20.2%. The result for `COC(=O)c1cc(Br)ccc1N(Cc1cc(OC)cc(OC)c1)S(C)(=O)=O` reads 16.2%; that for `Fc1cc(Br)cc(F)c1NC(=S)N1CCOCC1`, 4.04%; that for `Cc1cc(C(=O)CCC(=O)N2CCN(c3ccccc3O)CC2)c(C)s1`, 3.14%. On to `O=C(Nc1nnc(Cc2ccccc2)s1)C1CCC1`, for which the “hERG current change (%, negative = inhibition) at 1uM” value turned out to be 13%.

With `CN(NC(=O)c1ccccc1)c1nc2ccccc2nc1C(F)(F)F`, the “hERG current change (%, negative = inhibition) at 1uM” value was determined as 2.3%. Regarding `Cc1ccc2[nH]c(C(=O)Nc3ccc(F)cc3)cc2c1`, the “hERG current change (%, negative = inhibition) at 1uM” value worked out at 13%. The result for `O=S(=O)(NN1CCOCC1)c1cc(Cl)cc(Cl)c1O` reads 12.3%. The result for `Nc1ccccc1C(=O)N(Cc1ccccc1)Cc1ccccc1` reads 2.11%; that for `O=C(NNc1nc2c(F)cccc2s1)C1=COCCO1`, 16.5%. `CN(Cc1cnccn1)C(=O)C1CCC(=O)N(CCc2ccc(Cl)cc2)C1` (stereo not shown): the “hERG current change (%, negative = inhibition) at 1uM” value is given as 0.628%. The result for `COc1ccc(/C=N/NC(=O)Nc2ccc3nsnc3c2)c(OC)c1` reads 4.71%; that for `COc1ccc([C@H]2CC(=O)C=C(c3cc4ccccc4s3)C2)cc1`, 8.5%.

`Nc1ccc2nc(SCc3cccc(F)c3)sc2c1`: the “hERG current change (%, negative = inhibition) at 1uM” value was 7.94%. Next, `CCc1ccccc1NC(=O)C1=CC(c2ccc(OC)c(OC)c2)=NS(=O)(=O)N1C`: 9.71%.

On to `Cc1nn(C)cc1CN(C)C(=O)c1cc(-c2ccccc2)nc2ccc(Br)cc12`, for which the “hERG current change (%, negative = inhibition) at 1uM” value was 12.6%. Next, `CN(CC(=O)NCc1ccco1)S(=O)(=O)c1ccc2c(c1)c(=O)n(C)c(=O)n2C`: 5.04%; `COC(=O)c1ccc2nc(C)cc(Nc3ccccc3C)c2c1.Cl`: -26%; `COc1ccc(C(CNC(=O)c2cccc(S(=O)(=O)N3CCCCC3)c2)N2CCCC2)cc1` (stereo not shown): -3.66%. For `FC(F)(F)c1ccc(/C=N/NC(=S)NC2CCCCC2)cc1`, the “hERG current change (%, negative = inhibition) at 1uM” value is recorded as 4.96%.

On to `Cc1cccc(NC(=O)c2sc(NC(=O)COc3ccccc3)c(C#N)c2C)c1C`, for which the “hERG current change (%, negative = inhibition) at 1uM” value is 11.8%. The result for `CCc1noc(C)c1C(=O)N(C)CC(=O)Nc1ccc(F)c(F)c1F` reads 14.2%. Next, `COc1ccc(OC)c(NC(=O)COC(=O)C2CCN(C(=O)c3ccc(Cl)cc3)CC2)c1`: -49.1%; `COc1ccccc1CCC(=O)NNC(=O)c1ccc(Br)cc1`: 9.37%; `O=C(Cn1cnc2ccccc21)N/N=C/c1ccccc1`: 4.49%. Next, `COc1ccc2nc(NCc3ccccc3)[nH]c2c1`: -7.49%. On to `O=C(NC(=S)Nc1cccc2c(O)cccc12)c1cccc(Br)c1`, for which the “hERG current change (%, negative = inhibition) at 1uM” value worked out at 8.92%. The result for `O=C(COc1ccccc1)N1CCN(S(=O)(=O)c2ccc(Br)cc2)CC1` reads -0.677%; that for `CC(C(=O)N1CCCC1)c1ccc([N+](=O)[O-])cc1` (stereo not shown), 12.1%. The result for `COc1ccc(N(C(=O)CNC(=O)c2ccco2)C(C(=O)NCC2CCCO2)c2ccccc2)c(OC)c1` (stereo not shown) reads 13%.

As to `CCn1cc(C(=O)Nn2cnnc2)c(=O)c2ccc(C)nc21`, the “hERG current change (%, negative = inhibition) at 1uM” value is 7.71%.

For `O=[N+]([O-])c1ccccc1NCc1ccccc1Cl`, the “hERG current change (%, negative = inhibition) at 1uM” value is listed as -5.53%. On to `CCN(CC)C(=O)c1ccc(-c2nnc(Nc3cccc(O)c3)c3ccccc23)cc1`, for which the “hERG current change (%, negative = inhibition) at 1uM” value stood at 14.2%. Next, `Cc1onc(-c2c(Cl)cccc2Cl)c1C(O)c1ccccc1` (stereo not shown): 10.6%; `Cc1nnc(SCC2=C(C(=O)O)N3C(=O)C(NC(=O)Cn4cnnn4)C3SC2)s1` (stereo not shown): 10.4%; `CN(C)c1ccc(N=Nc2ccccc2C(=O)OCC(=O)N(C)c2ccccc2)cc1`: 10.5%.

For the compound `CCCCN(CC)CCNC(=O)c1nn(-c2ccc(OC)cc2)c(=O)c2c1c1ccccc1n2C`, the “hERG current change (%, negative = inhibition) at 1uM” value is on record as 2.97%. Next, `COc1ccc(Cn2c(=O)c3[nH]cnc3n(-c3ccc(C)cc3)c2=O)cc1`: 1.13%; `Cc1ccc(-n2ccnc(SCC(=O)NC3CCCC3)c2=O)cc1Cl`: 10.1%. With `O=C(Cc1ccccc1)NCc1nc2ccccc2[nH]1`, the “hERG current change (%, negative = inhibition) at 1uM” value is recorded as -2.39%. The result for `CC(=O)NC(=S)Nc1ccc(S(=O)(=O)N(C)Cc2ccccc2)cc1` reads 11.1%; that for `O=C1/C(=C/c2ccc3c(c2)OCO3)CCC/C1=C\c1ccc2c(c1)OCO2`, 9.14%; that for `CCOC(=O)CNC(=O)Cn1cnc2c(nnn2-c2ccc(F)cc2)c1=O`, -1.18%. The result for `CC(=O)c1cccc(NC(=O)N2CCCC2C(=O)NCc2ccc(F)cc2)c1` (stereo not shown) reads 4.83%; that for `CC1CCCN(S(=O)(=O)c2ccc(NC(=O)[C@@H]3CCCN3C(=O)c3cccs3)cc2)C1` (stereo partly shown), 5.35%. On to `Br.O=C(CN1CCSC1=NCc1ccccc1)c1ccc(Cl)c(Cl)c1`, for which the “hERG current change (%, negative = inhibition) at 1uM” value is 10.5%. For `CC(=O)c1cc(-c2ccccc2)n(CC(=O)N2CCCCC2)c1C`, the “hERG current change (%, negative = inhibition) at 1uM” value was found to be 4.18%. With `OC1(c2ccc(F)cc2)CC2CCC(C1)N2Cc1nnnn1C1CCCCC1` (stereo not shown), the “hERG current change (%, negative = inhibition) at 1uM” value came to 7.99%. Next, `Cc1ccccc1NC(=O)Cc1c(O)c2ccccc2[nH]c1=O`: 4.48%; `CC(C)(C)c1ccc(C(=O)OCC(=O)NCc2ccco2)cc1`: 6.2%. Turning to `CC(OC(=O)c1cccc(S(=O)(=O)N2CCCCC2)c1)C(=O)NC1CCCCC1C` (stereo not shown), the “hERG current change (%, negative = inhibition) at 1uM” value was -8.47%. Next, `CC(=O)c1c(C)[nH]c(C(=O)COC(=O)C2CC2)c1C`: 12.2%.
